# Data: the supplement of paper PMC8728848
# This is one part of the list.
# B1: P-Selectin (Mus musculus), Q01102 (protein)
# chain: MAGCPKGSWTPRLRSVILGGAQLIWFSALISELVNQKEVAAWTYNYSTKAYSWNNSRVFCRRHFTDLVAIQNKNEIAHLNDVIPFFNSYYWIGIRKINNKWTWVGTNKTLTEEAENWADNEPNNKKNNQDCVEIYIKSNSAPGKWNDEPCFKRKRALCYTASCQDMSCSNQGECIETIGSYTCSCYPGFYGPECEYVKECGKVNIPQHVLMNCSHPLGEFSFNSQCTFSCAEGYELDGPGELQCLASGIWTNNPPKCDAVQCQSLEAPPHGTMACMHPIAAFAYDSSCKFECQPGYRARGSNTLHCTGSGQWSEPLPTCEAIACEPPEIPIHGSMDCVPSTGTFGYNSSCTFLCAEGFVLKGNDAIQCADSGQWTAPAPFCEALQCPEFPVPSKAQVNCSDPFGTLTYQSVCSFSCDEGSLLVGASVIRCLATGHWNGAPPECQAVSCAPMLSPENGSMTCVQPLGNSTYKSTCQFMCDEGFYLSGPERLDCSPSGHWTGTPPTCEAIKCPGIFAPEQGNLDCSHVHGEFGVGSICHFSCNEDFELLGSENVECTVSGRWSAPPPTCKGITSLPAPAVRCPALTTPGQGTMSCQHHLGSFGPNTTCYFGCKTGFTLRGANSLRCRASGQWTAVTPMCRAVKCSELHMDTAVAMNCSNPWGNFSYGSTCTFQCPEGQSLNGSVRATCREDGHWSDAMPTCQAGTLTIQEALTYLGGAVASTTGLAVGGTLLALLRKRLRKKDDGKCPLNPHSHLGTYGVFTNAAYDPTP
# Experiments:
# Assay in all cases: glycan array binding signal (z-score within array); higher = stronger binding
# Settings in all cases: glycan notation: IUPAC condensed, linker removed
# [1] = target: Neu5Ac(a2-3)[Neu5Ac(a2-6)]GalNAc
# In short: (§1)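 Glycan array binding is given as a within-array Z-score, which can be read as non-binding when negative. The arrays, 3228 of them, came from the Consortium for Functional Glycomics database and were retained only where the protein sequence was available. Z-scores were averaged across arrays of the same protein sequence at different concentrations or buffers and across linkers.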
# [2] = target: Neu5Ac(a2-6)Gal
# In short: as §1
# [3] = target: Neu5Ac(a2-6)Gal(b1-4)Glc
# In short: as §1
# [4] = target: Neu5Ac(a2-6)Gal(b1-4)GlcNAc
# In short: as §1
# [5] = target: Neu5Ac(a2-6)Gal(b1-4)GlcNAc(b1-2)Man(a1-3)[Gal(b1-4)GlcNAc(b1-2)Man(a1-6)]Man(b1-4)GlcNAc(b1-4)GlcNAc
# In short: as §1
# [6] = target: Neu5Ac(a2-6)Gal(b1-4)GlcNAc(b1-2)Man(a1-3)[GlcNAc(b1-2)Man(a1-6)]Man(b1-4)GlcNAc(b1-4)GlcNAc
# In short: as §1
# [7] = target: Neu5Ac(a2-6)Gal(b1-4)GlcNAc(b1-2)Man(a1-3)[GlcNAc(b1-2)Man(b1-4)GlcNAc(b1-2)Man(a1-6)]Man(b1-4)GlcNAc(b1-4)GlcNAc
# In short: as §1
# [8] = target: Neu5Ac(a2-6)Gal(b1-4)GlcNAc(b1-2)Man(a1-3)[Neu5Ac(a2-6)Gal(b1-4)GlcNAc(b1-2)Man(a1-6)]Man(b1-4)GlcNAc(b1-4)GlcNAc
# In short: as §1
# [9] = target: Neu5Ac(a2-6)Gal(b1-4)GlcNAc(b1-2)Man(a1-6)[Gal(b1-4)GlcNAc(b1-2)Man(a1-3)]Man(b1-4)GlcNAc(b1-4)GlcNAc
# In short: as §1
# [10] = target: Neu5Ac(a2-6)Gal(b1-4)GlcNAc(b1-2)Man(a1-6)[GlcNAc(b1-2)Man(a1-3)]Man(b1-4)GlcNAc(b1-4)GlcNAc
# In short: as §1
# [11] = target: Neu5Ac(a2-6)Gal(b1-4)GlcNAc(b1-3)Gal(b1-4)GlcNAc
# In short: as §1
# [12] = target: Neu5Ac(a2-6)Gal(b1-4)GlcNAc(b1-3)Gal(b1-4)[Fuc(a1-3)]GlcNAc(b1-3)Gal(b1-4)[Fuc(a1-3)]GlcNAc
# In short: as §1
# [13] = target: Neu5Ac(a2-6)Gal(b1-4)GlcNAc6S
# In short: as §1
# [14] = target: Neu5Ac(a2-6)GalNAc
# In short: as §1
# [15] = target: Neu5Ac(a2-6)GalNAc(b1-4)GlcNAc
# In short: as §1
# [16] = target: Neu5Ac(a2-8)Neu5Ac
# In short: as §1
# [17] = target: Neu5Ac(a2-8)Neu5Ac(a2-3)Gal(b1-4)Glc
# In short: as §1
# [18] = target: Neu5Ac(a2-8)Neu5Ac(a2-3)[GalNAc(b1-4)]Gal(b1-4)Glc
# In short: as §1
# [19] = target: Neu5Ac(a2-8)Neu5Ac(a2-8)Neu5Ac
# In short: as §1
# [20] = target: Neu5Ac(a2-8)Neu5Ac(a2-8)Neu5Ac(a2-3)Gal(b1-4)Glc
# In short: as §1
# [21] = target: Neu5Ac(a2-8)Neu5Ac(a2-8)Neu5Ac(a2-3)[GalNAc(b1-4)]Gal(b1-4)Glc
# In short: as §1
# [22] = target: Neu5Ac(a2-8)Neu5Ac(a2-8)Neu5Ac(a2-8)Neu5Ac(a2-3)[GalNAc(b1-4)]Gal(b1-4)Glc
# In short: as §1
# [23] = target: Neu5Ac(b1-6)GalNAc
# In short: as §1
# [24] = target: Neu5Ac(b2-6)Gal(b1-4)GlcNAc
# In short: as §1
# [25] = target: Neu5Ac(b2-6)GalNAc
# In short: as §1
# [26] = target: Neu5Ac9Ac(a2-6)Gal(b1-4)GlcNAc
# In short: as §1
# [27] = target: Neu5Gc(a2-3)Gal(b1-3)GlcNAc
# In short: as §1
# [28] = target: Neu5Gc(a2-3)Gal(b1-3)[Fuc(a1-4)]GlcNAc
# In short: as §1
# [29] = target: Neu5Gc(a2-3)Gal(b1-4)Glc
# In short: as §1
# [30] = target: Neu5Gc(a2-3)Gal(b1-4)GlcNAc
# In short: as §1
binder,measurement,setting,value
B1,glycan array binding signal (z-score),[1],0.023
same,glycan array binding signal (z-score),[2],-0.299
same,glycan array binding signal (z-score),[3],-0.31
same,glycan array binding signal (z-score),[4],-0.451
same,glycan array binding signal (z-score),[5],-0.298
same,glycan array binding signal (z-score),[6],-0.248
same,glycan array binding signal (z-score),[7],-0.268
same,glycan array binding signal (z-score),[8],-0.116
same,glycan array binding signal (z-score),[9],-0.293
same,glycan array binding signal (z-score),[10],-0.311
same,glycan array binding signal (z-score),[11],-0.535
same,glycan array binding signal (z-score),[12],0.242
same,glycan array binding signal (z-score),[13],0.597
same,glycan array binding signal (z-score),[14],-0.339
same,glycan array binding signal (z-score),[15],-0.307
same,glycan array binding signal (z-score),[16],-0.254
same,glycan array binding signal (z-score),[17],-0.183
same,glycan array binding signal (z-score),[18],-0.223
same,glycan array binding signal (z-score),[19],-0.086
same,glycan array binding signal (z-score),[20],-0.297
same,glycan array binding signal (z-score),[21],-0.21
same,glycan array binding signal (z-score),[22],-0.517
same,glycan array binding signal (z-score),[23],0.027
same,glycan array binding signal (z-score),[24],-0.327
same,glycan array binding signal (z-score),[25],-0.354
same,glycan array binding signal (z-score),[26],-0.188
same,glycan array binding signal (z-score),[27],-0.17
same,glycan array binding signal (z-score),[28],3.75
same,glycan array binding signal (z-score),[29],-0.329
same,glycan array binding signal (z-score),[30],-0.056
